# Assay results from the supplement of paper PMC3334620.
# Over roughly 33,000 sequences, “E-score (-0.5 to 0.5)” has its median near -0.032; the highest 2% begin near 0.36. Some of the results follow.
# Biological target: T1, Sko1 (UniProt Q02100)
# T1 sequence: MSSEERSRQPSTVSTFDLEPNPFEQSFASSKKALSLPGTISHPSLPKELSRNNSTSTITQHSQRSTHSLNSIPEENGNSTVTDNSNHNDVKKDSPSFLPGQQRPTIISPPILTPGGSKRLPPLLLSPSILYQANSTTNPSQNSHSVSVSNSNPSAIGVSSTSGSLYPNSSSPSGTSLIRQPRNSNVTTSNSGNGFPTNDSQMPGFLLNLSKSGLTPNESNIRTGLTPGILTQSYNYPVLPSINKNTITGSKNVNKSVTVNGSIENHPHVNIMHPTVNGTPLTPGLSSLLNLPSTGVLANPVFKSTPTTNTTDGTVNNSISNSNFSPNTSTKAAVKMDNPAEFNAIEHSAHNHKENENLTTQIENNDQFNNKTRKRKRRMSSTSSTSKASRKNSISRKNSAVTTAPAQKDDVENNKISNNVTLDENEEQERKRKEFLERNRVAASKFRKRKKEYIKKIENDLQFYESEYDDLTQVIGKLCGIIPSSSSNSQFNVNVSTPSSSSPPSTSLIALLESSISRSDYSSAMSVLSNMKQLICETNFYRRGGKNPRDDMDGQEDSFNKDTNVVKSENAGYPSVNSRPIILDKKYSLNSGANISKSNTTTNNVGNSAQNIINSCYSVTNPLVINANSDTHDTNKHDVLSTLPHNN
# Test: PBM E-score (8-mer binding enrichment) (E-score (-0.5 to 0.5)); higher = stronger / more preferred TF binding; most listed sequences are background and not binding sites
# Settings: protein concentration: 200 nM; construct: GST-full length
# Summary of the method: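 Each ungapped eight-base word and its reverse complement, pooled, received an E-score from the Universal PBM Analysis Suite. Underlying scans, normalised with masliner, recorded fluorescent anti-GST bound to GST-tagged yeast transcription factors. These were applied at about 100-200 nM to universal all-10-mer Agilent arrays double-stranded by primer extension.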
row,Sequence,PBM E-score
1,CCGGGTAG,-0.314
2,CGTTCGCA,0.168
3,CGTAACGA,0.366
4,ACTGCGGC,-0.189
5,GCTGGGAA,-0.283
6,ATCTCTCA,0.0358
7,TAAGTGTA,0.148
8,CCTTTATC,-0.205
9,CTCCCAGC,-0.297
10,TAAGGATA,0.0924
11,ATTATTCA,0.173
12,CATTTTGA,0.0281
13,CGCTTAAA,0.0298
14,CGACCCCG,-0.339
15,AGACTACG,0.136
16,GCATACAC,0.0391
17,AAATATAG,0.324
18,GAGGCTCA,-0.271
19,TAACAATA,0.234
20,CAGTGTAC,-0.0149
21,ATGGTTGA,-0.0732
22,ACGGCCAC,-0.146

row,Sequence,PBM E-score
1,CACAACTA,0.171
2,CTCACAAA,-0.0672
3,CGCGTGGC,0.0474
4,AATTCAGG,-0.0821
5,AATCAATG,0.212
6,GGTGCTAA,-0.112
7,AATCTACG,0.215
8,GTGTGAGA,0.0436
9,AATGTTAG,0.0972
10,CACAAGCG,-0.164
11,GCTCCTGA,-0.203
12,GAGAGAAC,-0.15
13,ACTGGAAT,-0.05
14,CGCAGGGC,0.00913
15,CGGAATAG,0.0415
16,TATCTTCA,0.114
17,CGGTTGCC,-0.197
18,ACAATGAG,-0.0472
19,CCACGCTC,-0.181
20,ACGGTGAC,0.166
21,ATCGACAC,-0.143
22,CTTCACAA,-0.168

row,Sequence,PBM E-score
1,GCGAAGTA,0.038
2,CACGGTGG,-0.0844
3,ACCGGGGC,-0.318
4,AAGCGGAC,-0.269
5,CGAGAAAC,-0.116
6,AACCGCTT,-0.113
7,ATTCGCTG,0.0204
8,ATCGGGAG,-0.138
9,GACCGCGC,-0.262
10,TACCATGA,0.0739
11,AGGGCCCG,-0.204
12,ACCAATCA,0.0229
13,GTCTTTCA,0.0742
14,ACGTTTGC,0.348
15,ACAGACAT,-0.00702
16,CCGTCATA,0.368
17,CAATTAGC,-0.00611
18,ACACTTTA,0.0468
19,CTGATAAG,-0.0338
20,ACTAACTC,0.0486
21,ACGTCGAT,0.432
22,CCCCCACA,-0.325

row,Sequence,PBM E-score
1,CCACGCCC,-0.165
2,ACTTGTCT,-0.0281
3,AGACGGGA,-0.199
4,ATTCTCCA,0.0217
5,CTGCCGAC,-0.335
6,CCCCGGAA,-0.304
7,CAACCTGG,0.0125
8,ACATAAAA,0.277
9,AAATCAGA,0.192
10,AACAGTGG,-0.244
11,ATCTTTCG,-0.0822
12,CCTACCCC,-0.273
13,GATAGTAC,-0.00348
14,CAGGCACA,-0.0227
15,CTAGATGA,0.0866
16,AGAGGTGC,-0.277
17,GTAATAAC,0.319
18,GAGGTTTA,-0.0725
19,GTGCTGGA,-0.202
20,ATGCCGGC,-0.173
